# Test results: the antibiotic and cytotoxicity screens of Wong et al. (2023)
# The list shows a part of the results.
# Legend:
# HSkMC = human skeletal muscle cells; experiment: cytotoxicity call (relative viability < 0.9); conditions: 10 µM
# S. aureus RN4220 = experiment: growth inhibition call (relative growth <= 0.2); conditions: 50 µM
SMILES,cytotoxicity call (HSkMC),growth inhibition call (S. aureus RN4220)
C[C@@H]1CN([C@@H](C)CO)C(=O)c2cccc(NS(C)(=O)=O)c2O[C@H]1CN(C)Cc1ccc2c(c1)OCO2,inactive,inactive
C[C@H]1CCCCO[C@@H](CN(C)Cc2ccc3c(c2)OCO3)[C@@H](C)CN([C@@H](C)CO)C(=O)c2cc(NS(=O)(=O)c3ccc(F)cc3)ccc2O1,inactive,inactive
O=C(Nc1ccc(C(F)(F)F)cc1)Nc1ccc2c(c1)[C@@H]1C[C@H](CC(=O)N3CCc4ccccc4C3)O[C@H](CO)[C@@H]1O2,inactive,inactive
O=C(O)CCC(=O)Nc1ccccn1,inactive,inactive
CCOC(=O)CSc1nc(=O)cn[nH]1,inactive,inactive
C[C@@H]1CN([C@@H](C)CO)S(=O)(=O)c2ccc(-c3cccnc3)cc2O[C@H]1CN(C)C(=O)c1cccc(F)c1,inactive,inactive
C[C@@H]1CCCCO[C@H](CN(C)C(=O)Nc2ccccc2)[C@@H](C)CN([C@@H](C)CO)C(=O)c2cc(NC(=O)c3ccccc3)ccc2O1,inactive,inactive
Cn1sc(=O)n(Cc2ccccc2)c1=O,inactive,active
C[C@H](CO)N1C[C@H](C)[C@@H](CN(C)Cc2ccc(Oc3ccccc3)cc2)Oc2ccc(NC(=O)Cc3cn(C)c4ccccc34)cc2CC1=O,inactive,inactive
COc1ccc2c3c([nH]c2c1)[C@@H](CO)N(Cc1ccc(cc1)Cl)C[C@]13CCN(CC1)Cc1nccs1,inactive,inactive
C[C@@H]1CCCCO[C@H](CN(C)CC2CCCCC2)[C@@H](C)CN([C@H](C)CO)C(=O)c2cc(NC(=O)Nc3ccc4c(c3)OCO4)ccc2O1,inactive,inactive
